For 20 molecules, binding signal results are on record in paper PMC9911399, “Two distinct binding modes provide the RNA-binding protein RbFox with extraordinary sequence specificity”.

B1: GCAUUCA (DNA:RNA)
RNA: GGGAGACCGGAAUUCAGAUUGUCCGCAUUCAUUAAAUCCCGUCGUAGCCACCA
DNA 1: CAATCTGAATTCCGGTCTCCC
DNA 2: TGGTGGCTACGACGGGATT
B2: AGUUACA (DNA:RNA)
RNA: B1 RNA with G25A, C26G, A27U, U29A
DNA 1: CAATCTGAATTCCGGTCTCCC
DNA 2: TGGTGGCTACGACGGGATT
B3: CGUCGCU (DNA:RNA)
RNA: B1 RNA with G25C, C26G, A27U, U28C, U29G, A31U
DNA 1: CAATCTGAATTCCGGTCTCCC
DNA 2: TGGTGGCTACGACGGGATT
B4: UUCCCUC (DNA:RNA)
RNA: GGGAGACCGGAAUUCAGAUUGUCCUUCCCUCUUAAAUCCCGUCGUAGCCACCA
DNA 1: CAATCTGAATTCCGGTCTCCC
DNA 2: TGGTGGCTACGACGGGATT
B5: GACAACA (DNA:RNA)
RNA: B1 RNA with C26A, A27C, U28A, U29A
DNA 1: CAATCTGAATTCCGGTCTCCC
DNA 2: TGGTGGCTACGACGGGATT
B6: UUCUGUC (DNA:RNA)
RNA: B4 RNA with C28U, C29G
DNA 1: CAATCTGAATTCCGGTCTCCC
DNA 2: TGGTGGCTACGACGGGATT
B7: GCCACGU (DNA:RNA)
RNA: B1 RNA with A27C, U28A, U29C, C30G, A31U
DNA 1: CAATCTGAATTCCGGTCTCCC
DNA 2: TGGTGGCTACGACGGGATT
B8: GAAGCUU (DNA:RNA)
RNA: B1 RNA with C26A, U28G, U29C, C30U, A31U
DNA 1: CAATCTGAATTCCGGTCTCCC
DNA 2: TGGTGGCTACGACGGGATT
B9: CAAUGAU (DNA:RNA)
RNA: B1 RNA with G25C, C26A, U29G, C30A, A31U
DNA 1: CAATCTGAATTCCGGTCTCCC
DNA 2: TGGTGGCTACGACGGGATT
B10: UUCCGAU (DNA:RNA)
RNA: B4 RNA with C29G, U30A, C31U
DNA 1: CAATCTGAATTCCGGTCTCCC
DNA 2: TGGTGGCTACGACGGGATT
B11: GCCGCGU (DNA:RNA)
RNA: B1 RNA with A27C, U28G, U29C, C30G, A31U
DNA 1: CAATCTGAATTCCGGTCTCCC
DNA 2: TGGTGGCTACGACGGGATT
B12: UAUUUUA (DNA:RNA)
RNA: B1 RNA with G25U, C26A, A27U, C30U
DNA 1: CAATCTGAATTCCGGTCTCCC
DNA 2: TGGTGGCTACGACGGGATT
B13: GAGACGG (DNA:RNA)
RNA: B1 RNA with C26A, A27G, U28A, U29C, C30G, A31G
DNA 1: CAATCTGAATTCCGGTCTCCC
DNA 2: TGGTGGCTACGACGGGATT
B14: ACUAACC (DNA:RNA)
RNA: B1 RNA with G25A, A27U, U28A, U29A, A31C
DNA 1: CAATCTGAATTCCGGTCTCCC
DNA 2: TGGTGGCTACGACGGGATT
B15: AAUCAUA (DNA:RNA)
RNA: B4 RNA with U25A, U26A, C27U, C29A, C31A
DNA 1: CAATCTGAATTCCGGTCTCCC
DNA 2: TGGTGGCTACGACGGGATT
B16: ACGCUCA (DNA:RNA)
RNA: B1 RNA with G25A, A27G, U28C
DNA 1: CAATCTGAATTCCGGTCTCCC
DNA 2: TGGTGGCTACGACGGGATT
B17: AUUCGGC (DNA:RNA)
RNA: B4 RNA with U25A, C27U, C29G, U30G
DNA 1: CAATCTGAATTCCGGTCTCCC
DNA 2: TGGTGGCTACGACGGGATT
B18: UGCCGAG (DNA:RNA)
RNA: B4 RNA with U26G, C29G, U30A, C31G
DNA 1: CAATCTGAATTCCGGTCTCCC
DNA 2: TGGTGGCTACGACGGGATT
B19: AGAGAGU (DNA:RNA)
RNA: B1 RNA with G25A, C26G, U28G, U29A, C30G, A31U
DNA 1: CAATCTGAATTCCGGTCTCCC
DNA 2: TGGTGGCTACGACGGGATT
B20: AUGGGAU (DNA:RNA)
RNA: B4 RNA with U25A, C27G, C28G, C29G, U30A, C31U
DNA 1: CAATCTGAATTCCGGTCTCCC
DNA 2: TGGTGGCTACGACGGGATT

Where a chain is given by its changes, count along the chain named. The list shows a part of the results.

This test has as its target T1, RBFOX1 RRM (Homo sapiens, UniProt Q9NWB1 109-208).
T1 sequence: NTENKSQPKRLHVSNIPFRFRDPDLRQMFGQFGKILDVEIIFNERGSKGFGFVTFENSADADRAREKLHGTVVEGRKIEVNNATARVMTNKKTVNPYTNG
Briefly: EMSA; HiTS-Eq, 1 nM pool, 10 min; buffer printed only for the single-RNA assays: 10 mM Tris pH 7.5, 150 mM NaCl, 3.4 mM EDTA, 0.001% NP-40, 30 C. The note with it: tags: His6 N-terminal (pET28a); label: 5' 32P. An outline of the steps: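 Purified RbFox RRM (wild type or mutant) was equilibrated for 10 min in 50 µL with 1 nM of a 5′-radiolabelled pool of RNA with 7 randomized nucleotides, its flanks annealed to DNA oligonucleotides, across increasing protein concentrations. Free RNA was separated by 8% native PAGE, excised, reverse-transcribed, PCR-barcoded and sequenced on an Illumina HiSeq 2500. Relative association constants came from read-count changes of each variant against the control reaction, normalised to the cognate motif.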
A general note: Mobility shift assays separate free from complexed probe on a gel.
For B1, the binding signal is 0.00789 KA relative to UGCAUGU.
The figure for B2 is 0.00471 KA relative to UGCAUGU.
The figure for B3 is 0.0092 KA relative to UGCAUGU; for B4 it is 0.00898 KA relative to UGCAUGU; for B5 it is 0.00142 KA relative to UGCAUGU.
For the molecule B6, the binding signal is 0.0193 KA relative to UGCAUGU.
Then B7, with 0.011 KA relative to UGCAUGU.
The figure for B8 is 0.0107 KA relative to UGCAUGU; for B9 it is 0.00274 KA relative to UGCAUGU.
The figure for B10 is 0.00897 KA relative to UGCAUGU.
Turning to B11, the binding signal is 0.0161 KA relative to UGCAUGU.
Then B12, with 0.00705 KA relative to UGCAUGU; and B13, with 0.0118 KA relative to UGCAUGU.
Then B14, with 0.00187 KA relative to UGCAUGU.
B15: the binding signal is 0.00052 KA relative to UGCAUGU.
Regarding B16, the binding signal was 0.00635 KA relative to UGCAUGU.
The figure for B17 is 0.00892 KA relative to UGCAUGU; for B18 it is 0.0232 KA relative to UGCAUGU; for B19 it is 0.0122 KA relative to UGCAUGU.
B20: the binding signal is 0.0102 KA relative to UGCAUGU.
